Results from the supplement of paper PMC4996465.
“And” between values parts separate entries of the source, which are not always exact repeats. Identical values can stand only once. Viability of KB3-1 and Nalm-6 cells after 48 h of drug alone (CellTiter-Glo), 11 doses over about 4.5 log units. % of DMSO wells, lower = more cell loss; AC50 from the fitted curve, lower = more potent. No active / inactive call. Nalm-6 was screened in two runs. AC50 is listed only for well-fitted inhibitory curves. KB3-1 is a HeLa-derived carcinoma line, Nalm-6 a B-cell precursor leukaemia line.

Key:
KB3-1 [1] = test: viability (% of DMSO control); higher = more viable cells
Description: (§1)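 Eleven-dose screen of the NCATS MIPE 3 library on cells without co-treatment; CellTiter-Glo after 48 h, as % of DMSO wells.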

Nalm-6 [2] = test: as above
Description: as §1

KB3-1 [3] = test: log AC50 of viability decrease (48 h) (log10 M); higher = less potent
Description: (§2)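 Eleven-dose screen of the NCATS MIPE 3 library on cells without co-treatment; CellTiter-Glo after 48 h. AC50 from the curve fit; only inhibitory curves of the better fit classes are listed.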

Nalm-6 [4] = test: as above
Description: as §2

| Structure (SMILES) | viability (KB3-1 [1]; 0.00078 µM) | viability (KB3-1 [1]; 0.00234 µM) | viability (KB3-1 [1]; 0.00702 µM) | viability (KB3-1 [1]; 0.0211 µM) | viability (KB3-1 [1]; 0.0632 µM) | viability (KB3-1 [1]; 0.19 µM) | viability (KB3-1 [1]; 0.569 µM) | viability (KB3-1 [1]; 1.71 µM) | viability (KB3-1 [1]; 5.12 µM) | viability (KB3-1 [1]; 15.4 µM) | viability (KB3-1 [1]; 46.1 µM) | viability (Nalm-6 [2]; run: 1, 0.00078 µM) | viability (Nalm-6 [2]; run: 1, 0.00234 µM) | viability (Nalm-6 [2]; run: 1, 0.00702 µM) | viability (Nalm-6 [2]; run: 1, 0.0211 µM) | viability (Nalm-6 [2]; run: 1, 0.0632 µM) | viability (Nalm-6 [2]; run: 1, 0.19 µM) | viability (Nalm-6 [2]; run: 1, 0.569 µM) | viability (Nalm-6 [2]; run: 1, 1.71 µM) | viability (Nalm-6 [2]; run: 1, 5.12 µM) | viability (Nalm-6 [2]; run: 1, 15.4 µM) | viability (Nalm-6 [2]; run: 1, 46.1 µM) | viability (Nalm-6 [2]; run: 2, 0.00078 µM) | viability (Nalm-6 [2]; run: 2, 0.00234 µM) | viability (Nalm-6 [2]; run: 2, 0.00702 µM) | viability (Nalm-6 [2]; run: 2, 0.0211 µM) | viability (Nalm-6 [2]; run: 2, 0.0632 µM) | viability (Nalm-6 [2]; run: 2, 0.19 µM) | viability (Nalm-6 [2]; run: 2, 0.569 µM) | viability (Nalm-6 [2]; run: 2, 1.71 µM) | viability (Nalm-6 [2]; run: 2, 5.12 µM) | viability (Nalm-6 [2]; run: 2, 15.4 µM) | viability (Nalm-6 [2]; run: 2, 46.1 µM) | log AC50 of viability decrease (KB3-1 [3]) | log AC50 of viability decrease (Nalm-6 [4]; run: 1) | log AC50 of viability decrease (Nalm-6 [4]; run: 2) |
| --- | --- | --- | --- | --- | --- | --- | --- | --- | --- | --- | --- | --- | --- | --- | --- | --- | --- | --- | --- | --- | --- | --- | --- | --- | --- | --- | --- | --- | --- | --- | --- | --- | --- | --- | --- | --- |
| C/C=C1\NC(=O)[C@H]2CSSCC/C=C\[C@H](CC(=O)N[C@H](C(C)C)C(=O)N2)OC(=O)[C@H](C(C)C)NC1=O [Romidepsin] | 99.2% | 41.8% | 20.7% | 15.6% | 15.5% | 16.5% | 15% | 15.3% | 12.2% | 12% | 7.6% | 114% | 31.7% | 9.08% | 8.57% | 8.88% | 8.86% | 8.67% | 8.86% | 7.85% | 8.16% | 4.1% | 115% | 26.5% | 7.23% | 8.83% | 6.52% | 7.18% | 6.15% | 7.28% | 5.56% | 4.92% | 1.19% | -8.73 | -8.78 | -8.78 |
| CCOc1cc(N2CCC(O)CC2)ccc1Nc1ncc2c(n1)N(C)c1ccccc1C(=O)N2C [XMD8-92] | 101% | 105% | 99.8% | 102% | 104% | 104% | 99.7% | 95.1% | 87.8% | 76.3% | 52.6% | 118% | 118% | 118% | 115% | 119% | 115% | 107% | 95.9% | 58.7% | 54.7% | 4.78% | 113% | 115% | 112% | 114% | 114% | 114% | 104% | 91.7% | 58.2% | 46.2% | 0.564% | -4.78 | -4.88 | -4.88 |
| O=C(NCCCNc1nc(Nc2cccc(NC(=O)N3CCCC3)c2)ncc1I)c1cccs1 [BX-795] | 102% and 99.5% | 103% and 97% | 99.4% and 96.5% | 102% and 94.5% | 100% and 103% | 98.1% and 94.2% | 80.3% and 69.4% | 83% and 77.6% | 80.2% and 78.3% | 63.1% and 72.4% | 2.86% and 3.79% | – | – | – | – | – | – | – | – | – | – | – | – | – | – | – | – | – | – | – | – | – | – | -4.68 and -4.63 | – | – |
